Measurements from PMC6415948 (ACS chemical biology, 2018).

Biological target: Human IgG1 Fc, G0F N-glycan (agalactosylated, core-fucosylated) (human, G0F N-glycan at Asn297)
Test: SPR

B1: CD16a N45Q, Man5 glycoform (receptor)
chain: not shown
modifications: Man5 oligomannose N-glycans at the remaining N-glycosylation sites (Asn38, Asn74, Asn162, Asn169)
Kd: 0.032 ± 0.004 µM

B2: CD16a N45Q/N162Q, Man5 glycoform (receptor)
chain: not shown
modifications: Man5 oligomannose N-glycans at the remaining N-glycosylation sites (Asn38, Asn74, Asn169)
Kd: 0.29 ± 0.01 µM
